Source: the BET-seq Pho4 binding data (Le et al. 2018)
The other results are listed elsewhere or left out. The energies were worked out here from pooled read counts, against the library average; single values are noisy.

Molecular target: T1, Pho4 (S. cerevisiae) (UniProt P07270)
T1 sequence: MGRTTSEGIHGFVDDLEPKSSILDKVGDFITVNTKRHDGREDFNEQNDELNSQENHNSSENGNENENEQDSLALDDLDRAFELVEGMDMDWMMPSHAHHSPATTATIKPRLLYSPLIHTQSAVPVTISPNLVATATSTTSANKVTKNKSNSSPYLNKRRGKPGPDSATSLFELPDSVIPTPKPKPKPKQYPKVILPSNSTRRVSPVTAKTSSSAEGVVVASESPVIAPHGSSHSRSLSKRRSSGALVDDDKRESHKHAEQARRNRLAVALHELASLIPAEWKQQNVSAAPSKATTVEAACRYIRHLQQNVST
Assay: relative binding free energy (BET-seq); higher = weaker binding
Settings: reference: library average

Sequence	relative binding free energy [kcal/mol]
ATAGCCACGTGTGGTG	-0.08
GGATGCACGTGTTTCT	0.2
CTGTTCACGTGTATGC	0.43
TGATTCACGTGGGAGC	0.21
ATTGACACGTGGTAAG	-0.16
GGGTTCACGTGGATTC	0.53
TAATGCACGTGATTGT	0.18
TTTAACACGTGTTAGT	-0.05
CGTAACACGTGTGTGT	0.01
AAATGCACGTGAGAGT	0.28
TTTTGCACGTGGATTT	0.12
ACGGTCACGTGAGGAG	0.33
TATAGCACGTGGGTTT	-0.14
TTGGGCACGTGTCTCG	0.03
GCATGCACGTGTGTGT	0.02
TTACGCACGTGTGTAT	-0.02
CTTTTCACGTGTAAAT	0.33
TAATTCACGTGCAGTT	0.32
TGTTGCACGTGCGGGA	-0.06
TTGGACACGTGCGGGG	-0.04
TTAAGCACGTGTTGTA	-0.07
GTTAGCACGTGTCTTC	0.24
AATGTCACGTGTGGCA	0.2

Sequence	relative binding free energy [kcal/mol]
TTAGACACGTGTACAT	0.18
TTGGACACGTGAGTGC	0.29
AATTGCACGTGTTCTG	-0.06
TGACTCACGTGTGAGG	0.14
TACGTCACGTGTCGGT	0.15
GGTAACACGTGGGCGG	-0.12
TGTTGCACGTGGCTTT	-0.07
GTCCGCACGTGGGGAT	-0.2
TGTTTCACGTGTCGTT	0.38
GGTGTCACGTGCTAGA	0.02
ATTTTCACGTGTATTC	0.19
AGTGGCACGTGGTACC	-0.16
AGGTTCACGTGTATTT	0.28
GTTTGCACGTGGTGCT	-0.05
TCGATCACGTGAAGTT	0.33
GTCTACACGTGATTGG	0.23
GGCTTCACGTGATGGA	0.37
GGTTACACGTGAGCGG	0.42
TTGTACACGTGGGGGT	0.01
TTTCTCACGTGTGGGA	0.25
CATTTCACGTGGAAGT	0.32
ACGGTCACGTGAAATG	0.39
ACAAGCACGTGTGGTT	0.04

Sequence	relative binding free energy [kcal/mol]
CATGTCACGTGTGGTC	0.2
GGAGACACGTGACTGG	0.1
GTTTGCACGTGTTCTT	0.1
ATGTACACGTGGAATT	0.19
CTCGTCACGTGTTTAG	0.09
TTTGACACGTGGTTAC	0
TGCGGCACGTGTAGAG	0.08
GGATTCACGTGGCAGG	0.22
AACAGCACGTGTGGTA	0
CGGAGCACGTGGGCGT	-0.28
AGACGCACGTGGTTAG	-0.08
TGCTTCACGTGGTTTG	0.22
TTATGCACGTGCGCTT	-0.05
TGGATCACGTGCGGTT	0.14
TTCGGCACGTGTGGCA	-0.05
CGGGGCACGTGGCAAG	-0.19
CGTTGCACGTGGATTA	-0.06
TGGGCCACGTGGTGTA	-0.22
TATTCCACGTGGTTAG	0.1
TAAATCACGTGGGAAG	0.11
CCTGGCACGTGAGGGA	0.13
GGTTTCACGTGATTAT	0.39
GTTTTCACGTGGATGC	0.21

Sequence	relative binding free energy [kcal/mol]
ATTGGCACGTGGGTAA	-0.21
AGTGGCACGTGTATGC	-0.04
AGGTGCACGTGTTATA	-0.04
GTGGTCACGTGTACGG	0.19
TGGGGCACGTGGGGAG	-0.17
AATCTCACGTGGGTGT	0.23
TGGCTCACGTGTTGAT	0.22
AATTTCACGTGTGGTC	0.25
ATAAGCACGTGTATAT	-0.05
CGAGGCACGTGGGTTT	-0.06
TCTATCACGTGAGGGA	0.29
TGCAGCACGTGGTAAT	-0.13
ATTTACACGTGGAGTA	0.01
GGTGCCACGTGGATTG	-0.15
TTGTGCACGTGGCGAT	-0.05
GTCGGCACGTGCGGAG	0.03
AAAGTCACGTGTGGAT	0.2
ATTGCCACGTGAGGCG	0.14
TAATGCACGTGGGCAT	-0.13
TAGGCCACGTGGTAGT	-0.22
TGCGTCACGTGTTAAT	0.12
GGGCTCACGTGTTGTG	0.18
TGTGTCACGTGACGAA	0.13

Sequence	relative binding free energy [kcal/mol]
TTATGCACGTGGTGAG	-0.09
GTCTTCACGTGGTTTT	0.37
ACGTACACGTGTAGGT	0.08
TGTGTCACGTGGCGTG	0.06
GATTCCACGTGTTGTG	0.22
GCCGTCACGTGGTTGG	0.08
CGGGACACGTGTTATT	0.11
GCTAACACGTGGGGGG	-0.22
GGCGTCACGTGTGATT	0.34
GTTACCACGTGTAGTT	0.06
CTATGCACGTGGTGTC	-0.12
GTTGGCACGTGTAACT	0.12
GTAGGCACGTGGCTAG	-0.29
GTTGCCACGTGCTGGG	-0.12
TGACTCACGTGTGTTA	0.34
TATCTCACGTGAGGGT	0.47
CGGTGCACGTGGGGAA	-0.11
GGTAACACGTGAGGTG	0.29
GTAAACACGTGGGGAG	-0.1
CATGTCACGTGGCAGG	-0.01
TCAGTCACGTGTTACG	0.18
TGACTCACGTGTTGCG	0.2
GGGGGCACGTGGTGAT	-0.14
